Results filed as inconclusive are left out. Certain results were filed several times, with different values. This list holds those alone. The source may hold further records. The records of an entry are repeated measurements (runs, samples, wells, individuals or studies).
Test system: nude mice, LX-1 lung xenograft intrarenal, tumor weight T/C
Test: NCI In Vivo Anticancer Drug Screen. Data for tumor model Human Lung LX-1 Xenograft (intrarenal inoculation) in NU/NU Swiss (nude) mice
Conditions: endpoint: mean tumor weight change, higher = larger tumour
Experimental: The antitumor activity of compounds was measured in mice bearing transplantable tumors. Survival or tumor size were measured and the results are expressed as the measurement made in the treated group (T) divided by the measurement made in the vehicle treated control group (C). The tumor model used in this assay is Human Lung LX-1 Xenograft (intrarenal inoculation) in NU/NU Swiss (nude) mice

[1] = dose: 200.0 mg/kg/injection, schedule: Q01DX010 (sc), vehicle: saline with Tween-80
[2] = dose: 50.0 mg/kg/injection, schedule: Q01DX010 (sc), vehicle: Klucel (hydroxypropylcellulose) (HPC)
[3] = dose: 50.0 mg/kg/injection, schedule: Q01DX010 (sc), vehicle: saline with Tween-80

**Q.** `CC[C@@H](C)[C@@H]1NC(=O)C(NC(=O)C(CC(C)C)N(C)C(=O)C2CCCN2C(=O)C(C)O)C(C)OC(=O)C(Cc2ccc(OC)cc2)N(C)C(=O)C2CCCN2C(=O)C(CC(C)C)NC(=O)C(C)C(=O)C(C(C)C)OC(=O)C[C@H]1O` (some centres not stated) was tested. Which T/C (dose: 150.0 micrograms/kg/injection, schedule: Q04DX003 (sc), vehicle: distilled water + alcohol) did it give?
**A.** 19 % of control and 104 % of control

**Q.** And the T/C (dose: 300.0 micrograms/kg/injection, schedule: Q04DX003 (sc), vehicle: distilled water + alcohol)?
**A.** 50 % of control and 92 % of control

**Q.** Which T/C (dose: 6.25 mg/kg/injection, schedule: Q01DX010 (sc), vehicle: saline) does the source give for `CC1(C)N=C(N)N=C(N)N1c1ccc(F)c(C(F)(F)F)c1` here?
**A.** 36 % of control and 187 % of control

**Q.** For `CNNCc1ccc(C(=O)NC(C)C)cc1`, which T/C (dose: 50.0 mg/kg/injection, schedule: Q01DX010 (sc), vehicle: saline) is on record?
**A.** -12 % of control, 12 % of control, 16 % of control

**Q.** How did the T/C (dose: 50.0 mg/kg/injection, schedule: Q01DX010 (sc), vehicle: distilled water + Tween-80) turn out when `CC(C)NC(=O)OCc1c(COC(=O)NC(C)C)c(-c2ccc(Cl)c(Cl)c2)n2c1CCC2` was run?
**A.** 34 % of control and 173 % of control

**Q.** What about the T/C (dose: 800.0 mg/kg/injection, schedule: Q01DX010 (sc), vehicle: distilled water + Tween-80) of the same molecule?
**A.** 16 % of control, 36 % of control, 47 % of control

**Q.** `O=C(Nc1nncs1)c1ccncc1` was tested. Which T/C [1] did it give?
**A.** 62 % of control and 92 % of control

**Q.** For `CC1CN1C(=O)NCCCCCCNC(=O)N1CC1C` (configuration not stated), which T/C (dose: 20.0 mg/kg/injection, schedule: Q04DX003 (sc), vehicle: Klucel (hydroxypropylcellulose) (HPC)) is on record?
**A.** 20 % of control and 64 % of control

**Q.** Which results are given for `COc1cccc2c1C(=O)c1c(O)c3c(c(O)c1C2=O)C[C@@](O)(C(=O)CO)C[C@@H]3OC1CC(N)C(O)C(C)O1` (some centres not stated)?
**A.** T/C (dose: 0.25 mg/kg/injection, schedule: Q01DX010 (ip), vehicle: water): 87 % of control and 153 % of control; T/C (dose: 8.0 mg/kg/injection, schedule: Q04DX003 (sc), vehicle: water): 42 % of control, 55 % of control, 107 % of control

**Q.** How did the T/C [1] turn out when `CCCCc1ccc2nc(NC(=O)OC)[nH]c2c1` was run?
**A.** 65 % of control, 91 % of control, 99 % of control

**Q.** What about the T/C (dose: 400.0 mg/kg/injection, schedule: Q01DX010 (sc), vehicle: saline with Tween-80) of the same molecule?
**A.** 57 % of control, 80 % of control, 101 % of control

**Q.** What about the T/C (dose: 800.0 mg/kg/injection, schedule: Q01DX010 (sc), vehicle: saline with Tween-80) of the same molecule?
**A.** 18 % of control, 38 % of control, 92 % of control

**Q.** With `Cc1[nH]c(=O)[nH]c(=O)c1N(CCF)CCCl` as the molecule, how does the T/C (dose: 10.0 mg/kg/injection, schedule: Q01DX010 (sc), vehicle: Klucel (hydroxypropylcellulose) (HPC)) read?
**A.** 58 % of control and 87 % of control

**Q.** What about the T/C (dose: 20.0 mg/kg/injection, schedule: Q01DX010 (sc), vehicle: Klucel (hydroxypropylcellulose) (HPC)) of the same molecule?
**A.** 55 % of control, 70 % of control, 122 % of control

**Q.** How did the T/C [2] turn out when `C/C(=C\c1ccccc1)[N+](=O)[O-]` was run?
**A.** 101 % of control and 155 % of control

**Q.** `CNC(=O)OCc1c(COC(=O)NC)c(-c2ccccc2)n(C)c1-c1ccccc1` was tested. Which T/C (dose: 400.0 mg/kg/injection, schedule: Q04DX003 (sc), vehicle: distilled water + Tween-80) did it give?
**A.** 55 % of control and 102 % of control

**Q.** With `COC(C(=O)C(O)C(C)O)C1Cc2cc3cc(OC4CC(OC(C)=O)C(OC5CC(O)C(OC)C(C)O5)C(C)O4)cc(O)c3c(O)c2C(=O)C1OC1CC(OC2CC(OC3CC(C)(O)C(OC(=O)C(C)C)C(C)O3)C(O)C(C)O2)C(O)C(C)O1` (configuration not stated) as the molecule, how does the T/C (dose: 1.0 mg/kg/injection, schedule: Q01DX010 (sc), vehicle: saline with Tween-80) read?
**A.** 41 % of control, 70 % of control, 197 % of control

**Q.** What about the T/C (dose: 2.0 mg/kg/injection, schedule: Q01DX010 (sc), vehicle: saline with Tween-80) of the same molecule?
**A.** 10 % of control, 59 % of control, 64 % of control

**Q.** `CCNC(=O)OCc1c(COC(=O)NCC)c(-c2ccc(Cl)c(Cl)c2)n2c1CCC2` was tested. Which T/C (dose: 25.0 mg/kg/injection, schedule: Q01DX010 (sc), vehicle: saline with Tween-80) did it give?
**A.** 26 % of control, 81 % of control, 91 % of control

**Q.** What about the T/C [3] of the same molecule?
**A.** 20 % of control, 116 % of control, 196 % of control

**Q.** For `N#C[Se-].c1ccc([Te+](c2ccccc2)c2ccccc2)cc1`, which T/C (dose: 50.0 mg/kg/injection, schedule: Q04DX003 (sc), vehicle: Klucel (hydroxypropylcellulose) (HPC)) is on record?
**A.** 60 % of control and 197 % of control

**Q.** What does the source list for `CC1=CC(=Nc2ccc(N(CCCl)CCCl)cc2)C=C(C)C1=O`?
**A.** T/C (dose: 150.0 mg/kg/injection, schedule: Q04DX003 (sc), vehicle: Klucel (hydroxypropylcellulose) (HPC)): 34 % of control, 78 % of control, 87 % of control; T/C (dose: 300.0 mg/kg/injection, schedule: Q04DX003 (sc), vehicle: Klucel (hydroxypropylcellulose) (HPC)): 63 % of control and 97 % of control; T/C (dose: 600.0 mg/kg/injection, schedule: Q04DX003 (sc), vehicle: Klucel (hydroxypropylcellulose) (HPC)): 20 % of control, 53 % of control, 87 % of control; T/C (dose: 1200.0 mg/kg/injection, schedule: Q04DX003 (sc), vehicle: Klucel (hydroxypropylcellulose) (HPC)): 32 % of control and 63 % of control

**Q.** Which T/C [3] does the source give for `C/C(=N/NC(N)=S)c1ccc2ccccc2c1` here?
**A.** 37 % of control and 196 % of control

**Q.** What about the T/C (dose: 100.0 mg/kg/injection, schedule: Q01DX010 (sc), vehicle: saline with Tween-80) of the same molecule?
**A.** 44 % of control and 119 % of control

**Q.** How did the T/C (dose: 600.0 mg/kg/injection, schedule: Q04DX003 (sc), vehicle: saline with Tween-80) turn out when `CCSC(=O)N1c2ccc(OC)cc2C=CC1C#N` (configuration not stated) was run?
**A.** 51 % of control, 65 % of control, 153 % of control

**Q.** And the T/C (dose: 1200.0 mg/kg/injection, schedule: Q04DX003 (sc), vehicle: saline with Tween-80)?
**A.** 29 % of control, 41 % of control, 58 % of control

**Q.** `CN(C)N=Nc1ccccc1` was tested. Which T/C (dose: 25.0 mg/kg/injection, schedule: Q01DX010 (sc), vehicle: Klucel (hydroxypropylcellulose) (HPC)) did it give?
**A.** -91 % of control and 22 % of control

**Q.** With `CCC(C(=O)O)C(=O)O.[NH2-].[NH2-].[Pt+2]` as the molecule, how does the T/C (dose: 75.0 mg/kg/injection, schedule: Q04DX003 (sc), vehicle: saline) read?
**A.** 64 % of control and 94 % of control

**Q.** What about the T/C (dose: 150.0 mg/kg/injection, schedule: Q04DX003 (sc), vehicle: saline) of the same molecule?
**A.** 19 % of control and 69 % of control

**Q.** `COc1cccc2c1C(=O)c1c(O)c3c(c(O)c1C2=O)CC(O)(/C(C)=N/NC(=O)CCC(=O)N/N=C(\C)C1(O)Cc2c(O)c4c(c(O)c2C(OC2CC(N)C(O)C(C)O2)C1)C(=O)c1c(OC)cccc1C4=O)CC3OC1CC(N)C(O)C(C)O1` (configuration not stated) was tested. Which T/C (dose: 25.0 mg/kg/injection, schedule: Q01DX010 (sc), vehicle: water) did it give?
**A.** 8 % of control and 34 % of control

**Q.** Which T/C (dose: 800.0 mg/kg/injection, schedule: Q04DX003 (sc), vehicle: saline with Tween-80) does the source give for `O/N=C/c1ccccc1O.O/N=C/c1ccccc1O.[Cu]` here?
**A.** 60 % of control and 100 % of control

**Q.** `c1cc(NC2CCCCC2)ccc1CN1CCOCC1` was tested. Which T/C (dose: 200.0 mg/kg/injection, schedule: Q01DX010 (sc), vehicle: saline + Tween-80 + alcohol) did it give?
**A.** 69 % of control and 159 % of control

**Q.** What about the T/C (dose: 400.0 mg/kg/injection, schedule: Q01DX010 (sc), vehicle: saline + Tween-80 + alcohol) of the same molecule?
**A.** 122 % of control and 173 % of control

**Q.** `O=C(O)C1(C(=O)O)CCC1.[NH2-].[NH2-].[Pt+2]` was tested. Which T/C (dose: 50.0 mg/kg/injection, schedule: Q01DX010 (sc), vehicle: dextrose) did it give?
**A.** 27 % of control and 58 % of control

**Q.** For `COc1cccc2c1C(=O)c1c(O)c3c(c(O)c1C2=O)CC(O)(/C(C)=N/NC(=O)CCCCC(=O)N/N=C(\C)C1(O)Cc2c(O)c4c(c(O)c2C(OC2CC(N)C(O)C(C)O2)C1)C(=O)c1c(OC)cccc1C4=O)CC3OC1CC(N)C(O)C(C)O1` (configuration not stated), which T/C (dose: 75.0 mg/kg/injection, schedule: Q04DX003 (sc), vehicle: water) is on record?
**A.** -100 % of control and 21 % of control

**Q.** For `CC1OC(=O)C(C(C)C)NC(=O)C(C(C)C)OC(=O)C(C(C)C)NC(=O)C(C)OC(=O)C(C(C)C)NC(=O)C(C(C)C)OC(=O)C(C(C)C)NC(=O)C(C)OC(=O)C(C(C)C)NC(=O)C(C(C)C)OC(=O)C(C(C)C)NC1=O` (configuration not stated), which T/C (dose: 10.0 mg/kg/injection, schedule: Q01DX010 (sc), vehicle: saline with Tween-80) is on record?
**A.** 60 % of control and 92 % of control

**Q.** `COC1OC(CO)C(O)C(NC(=O)N(C)N=O)C1O` (configuration not stated) was tested. Which T/C (dose: 225.0 mg/kg/injection, schedule: Q04DX003 (sc), vehicle: saline) did it give?
**A.** -80 % of control, 3 % of control, 8 % of control

**Q.** And the T/C (dose: 450.0 mg/kg/injection, schedule: Q04DX003 (sc), vehicle: saline)?
**A.** -89 % of control, 1 % of control, 8 % of control

**Q.** Which results are given for `O=[N+]([O-])/C=C\c1ccc2c(c1)OCO2`?
**A.** T/C [2]: 56 % of control and 98 % of control; T/C (dose: 100.0 mg/kg/injection, schedule: Q01DX010 (sc), vehicle: Klucel (hydroxypropylcellulose) (HPC)): 76 % of control, 84 % of control, 110 % of control; T/C (dose: 200.0 mg/kg/injection, schedule: Q01DX010 (sc), vehicle: Klucel (hydroxypropylcellulose) (HPC)): 49 % of control and 75 % of control; T/C (dose: 400.0 mg/kg/injection, schedule: Q01DX010 (sc), vehicle: Klucel (hydroxypropylcellulose) (HPC)): 56 % of control and 93 % of control

**Q.** How did the T/C (dose: 100.0 mg/kg/injection, schedule: Q04DX003 (sc), vehicle: suspension in saline) turn out when `CCc1ncnc2cc(OCC3CO3)c(OC)cc12` (configuration not stated) was run?
**A.** 56 % of control and 101 % of control

Source: PubChem BioAssay AID264 (DTP/NCI, 2004)
